From the RNAGym collection of RNA variant scans (doi:10.1093/nar/gkz1192)
The source gives no read counts; variants with many changes may rest on few reads.

B1: CPEB3 Ribozyme (parent)
chain: UAACAGGGGGCCACAGCAGAAGCGUUCACGUCGCAGCCCCUGUCAGAUUCUGGUGAAUCUGCGAAUUCUGCUGUAUAUCUC

Variants of: B1
Test: self-cleavage, relative activity (ratio to wild type); higher = more cleavage; in vitro, sequencing
Procedure, shortened: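 Barcoded CPEB3 ribozyme mutants, produced by rounds of error-prone PCR, self-cleaved while being transcribed with T7 RNA polymerase for 5 hours at 37°C and during a subsequent 15 min DNase I step before EDTA was added. Sequencing of template-switched cDNA on Illumina gave cleaved and total reads, and DNA sequencing assigned barcodes to variants. Each variant's relative activity is its cleaved/total read fraction divided by the unmutated ribozyme's fraction, averaged across three batches. A variant needed a minimum of 5 reads.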

| Variant | self-cleavage |
| --- | --- |
| G10A U25C A35G | 0.16 |
| G10A U25C A45G U49A | 0.34 |
| G10A U25C A65G U69A | 0.2 |
| G10A U25C G30A U41C A57G A75G | 0.12 |
| G10A U25C G53C | 0.24 |
| G10A U25C U48C U69C | 0.1 |
| G10A U25C U49C U54C U67A U72C | 0.09 |
| G10A U25C U58A U80C | 0.07 |
| G10A U25C U66C | 0.05 |
| G10A U25C U67A G70A | 0.05 |
| G10A U25C U69A | 0.16 |
| G10A U25G A28G C62U A64G | 0.04 |
| G10A U26A A47G U76C | 0.05 |
| G10A U26C A28G C40U A57G U69A | 0.05 |
| G10A U26C C38U | 0.28 |
| G10A U26G A28G | 0.3 |
| G10A U31A U78C | 0.06 |
| G10A U31C A47G U60A A64G U72A U76C | 0.06 |
| G10A U31C U54A U60C A64C U74C | 0.07 |
| G10A U31C U60A A64G U72A | 0.1 |
| G10A U41A A47U A65G | 0.04 |

| Variant | self-cleavage |
| --- | --- |
| G10A U41A A65G | 0.15 |
| G10A U41A U54C A57G U69C | 0.05 |
| G10A U41C A45U U76A | 0.29 |
| G10A U41C A56G U69A A77G | 0.03 |
| G10A U41C A64G U69C | 0.17 |
| G10A U41C U51A | 0.52 |
| G10A U41C U67C A77U | 0.18 |
| G10A U41C U72A | 0.2 |
| G10A U41G U51C | 0.31 |
| G10A U41G U51C A57U U78C | 0.11 |
| G10A U43A A57G | 0.09 |
| G10A U43C A45U A57G | 0.2 |
| G10A U43C U49A U51A A65C | 0.09 |
| G10A U43C U54C U74C | 0.19 |
| G10A U43C U60A C62U A65G U74A | 0.1 |
| G10A U43G U80C | 0.06 |
| G10A U48C A57G U67C U76A | 0.12 |
| G10A U49A A65G U74C | 0.06 |
| G10A U49C C79G | 0.06 |
| G10A U51A A56G A57U | 0.11 |
| G10A U60A A65G U66C | 0.13 |

| Variant | self-cleavage |
| --- | --- |
| G10A U60A G73A A75G | 0.34 |
| G10A U60C U72C | 0.15 |
| G10A U67C U74C | 0.04 |
| G10C A15G A28U | 0.03 |
| G10C A15U A35G | 0.23 |
| G10C A15U U60A | 0.43 |
| G10C A18G A45C | 0.26 |
| G10C A18G U43A U51A | 0.07 |
| G10C A18G U74C | 0.27 |
| G10C A18U U31A | 0.06 |
| G10C A18U U31C A47G A65G G70U U72A | 0.03 |
| G10C A18U U43A U51A | 0.23 |
| G10C A20G G36A A45G | 0.2 |
| G10C A20G U25C G55A A57G | 0.04 |
| G10C A20U A21G C37G | 0.14 |
| G10C A20U U25A U41A | 0.06 |
| G10C A21G C23U U25A U54G | 0.09 |
| G10C A21G C29U A65U U78C | 0.05 |
| G10C A21G C79U | 0.31 |
| G10C A21G G30A C37A U49C | 0.04 |
| G10C A21G U25C | 0.32 |

| Variant | self-cleavage |
| --- | --- |
| G10C A21G U25C A47U A64U A77G | 0.03 |
| G10C A21G U26C U60A | 0.14 |
| G10C A21G U51A | 0.05 |
| G10C A21U U54C A77C | 0.12 |
| G10C A28G A35G U49C | 0.1 |
| G10C A28G A45G U78A | 0.12 |
| G10C A28G A47G A65G G70U | 0.05 |
| G10C A28U U43A G53A | 0.19 |
| G10C A45U U58C U67C | 0.11 |
| G10C A47G U51C | 0.08 |
| G10C A56G A64G U72C | 0.17 |
| G10C A56G U69C | 0.13 |
| G10C A64G U72A | 0.16 |
| G10C C17U A28G G30A | 0.06 |
| G10C C27U A57G U60A U78C | 0.06 |
| G10C C34U A35G U43A U51A | 0.34 |
| G10C C38A A45G A56G | 0.07 |
| G10C C40U U51A | 0.06 |
| G10C G24U A28U U41C A75G | 0.08 |
| G10C G36A A65G | 0.07 |
| G10C G36A U43A U51A U72C | 0.18 |
